Laboratory results as given in PubChem BioAssay AID1963862 (Molecular Pharmacology Branch, DTP, NCI, 2024).
A number of entries come with more than one value. They are shown here; other results are not. There may be further records. The values listed for one entry are repeated measurements across runs, samples, wells, individuals or studies. Brackets with × give the number of equal values in this list.

Tested on: KRAS patient-derived spheroids with HUVEC/MSC, viability
Test: Anticancer human tumor 941728-121-R-J1-PDC patient-derived lung adenocarcinoma cell line growth inhibition [KRAS2]
Conditions: for viability, T/C: stronger effect = lower value; for IC50: compound alone
Source text: Multicellular complex tumor spheroid response to RAS pathway inhibitors in combination with a targeted agents in patient-derived cell lines with oncogenic KRAS variants from multiple cancer types
A high-throughput screen of multi-cell type tumor spheroids was designed to identify active combinations of targeted small molecules and KRAS pathway inhibitors. Complex spheroids include a stromal component modeled by human endothelial cells (HUVEC) and fibroblasts modeled by human mesenchymal stem cells (MSCs). The concentration ranges selected for each drug and investigational agent were based upon clinically achievable concentrations if the clinical Cmax of the agent was known.
Compounds. The drugs and investigational agents: BI-3406 (NSC825286), BAY-293 (NSC824723), batoprotafib (TNO155; NSC825523), sotorasib (AMG 510; NSC818433), MRTX1257 (NSC819558), elimusertib (BAY 1895344; NSC800525), molibresib (GSK525762; NSC774829), temuterkib (LY3214996; NSC803410), venetoclax (NSC766270), alisertib (NSC759677), olaparib (NSC753686), talazoparib (NSC767125), erdafitinib (NSC781556), ipatasertib (NSC767898), cabozantinib (NSC761068), nintedanib (NSC756659), abemaciclib (NSC768073), docetaxel (NSC628503), trametinib (NSC758246), and sapanisertib (NSC764658) were obtained from the National Cancer Institute (NCI) Developmental Therapeutics Program Chemical Repository. The FDA-approved anticancer drug set is available from the Developmental Therapeutics Program. […] The stock solutions were prepared in dimethyl sulfoxide (DMSO, Sigma-Aldrich, St. Louis, MO, cat. D2650) at 800-fold the tested concentration and stored at -70 degrees C prior to their use. All drugs and investigational agents were tested over a range starting from a high concentration at or near the clinical Cmax and decreasing in half-log increments. If the clinical Cmax for an agent had not been determined, the highest concentration tested was 10 microM.
Cell Culture. All cells were maintained in an incubator at 37 degrees C and 5% CO2 with 95% humidity. The PDC lines were cultured according to standard operating procedures established by the NCI PDMR (https://pdmr.cancer.gov/sops/default.htm). Briefly, all PDCs were thawed and cultured in Matrigel-coated flasks prepared with a working solution of 1X Ham's F-12 nutrient mix, without supplementation (Invitrogen, Waltham, MA, cat. 11765054), 100 U/mL penicillin-streptomycin (Invitrogen, cat. 15140122), and 2.5% Matrigel (Corning Inc., Corning, NY, cat. 354248) for the first three passages. All PDCs were cultured in complete DMEM/F-12 media containing advanced DMEM/F-12 (Invitrogen, cat. 12634028), 4.9% defined fetal bovine serum, heat inactivated (HyClone Laboratories Inc., Logan, UT, cat. SH30070.03HI), 389 ng/mL hydrocortisone (Sigma-Aldrich, cat. H4001), 9.7 ng/mL human EGF recombinant protein (Invitrogen, cat. PHG0313), 23.4 microg/mL adenine (Sigma-Aldrich, cat. A2786), 97.3 U/mL penicillin-streptomycin (Invitrogen, cat. 15140122), 1.9 mM L-glutamine (Invitrogen, cat. 25030081), and 9.7 microM Y-27632 dihydrochloride (Tocris Bioscience, Bristol, United Kingdom, cat. 1254). The PDCs were cultured in complete DMEM/F12 media without 9.7 microM Y-27632 dihydrochloride for at least two passages prior to the screen. The established cell line HOP-62 was cultured in RPMI 1640 medium, HEPES (Invitrogen, cat. 22400105) with 10% defined fetal bovine serum (HyClone Laboratories Inc., cat. SH30070.03) and 2 mM L-glutamine (Invitrogen, cat. 25030081). The pooled donor HUVEC were cultured in endothelial cell growth medium 2 (PromoCell, Heidelberg, Germany, cat. C-22011) and the hMSC were cultured in mesenchymal stem cell growth medium 2 (PromoCell, cat. C-28009). For all experiments, HUVEC and hMSC were used at passages </=5, while the malignant cell lines were used at passages </=15. […]
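Note: spheroids exposed to agents for seven days before readout.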

Structure (SMILES) | viability, T/C (compound alone 0.0316 µM) | viability, T/C (compound alone 0.316 µM) | viability, T/C (compound alone 1 µM) | viability, T/C (compound alone 10 µM) | viability, T/C (compound alone 0.1 µM) | IC50 | viability, T/C (compound alone 3.16 µM) | other results
COC(=O)c1ccc2c(C(=Nc3ccc(N(C)C(=O)CN4CCN(C)CC4)cc3)c3ccccc3)c(O)[nH]c2c1 | 79.2, 82.9, 106, 80.2, 83% | 69.5, 50.1, 94.6, 65.4, 60% | – | – | – | – | – | –
CC1OCC2(CCN(c3cnc(Sc4ccnc(N)c4Cl)c(N)n3)CC2)C1N (stereo not given) | – | – | 99.6, 90.2, 30.2 (2×), 33.2, 39.9, 24.1, 32.3, 32.4, 34.1, 31.2, 48.8, 37.8 (2×), 47.5, 30.3, 34.8, 31.5, 42.4% | 36.4, 65.7, 30.9, 27.6, 24.3, 19.4, 20.9, 14.1, 24.4, 20.4, 20.7, 38.2, 35.5, 41.7, 25.5, 23.4, 29.4, 24.2, 31.8, 39.7% | – | – | – | IC50 (run of 07/12/2021): 1.73 µM, < 100 nM, 137 nM, 232 nM; IC50 (run of 07/26/2021): 101 nM, < 100 nM, 121 nM, 103 nM
CC1(C)CCC(CN2CCN(c3ccc(C(=O)NS(=O)(=O)c4ccc(NCC5CCOCC5)c([N+](=O)[O-])c4)c(Oc4cnc5[nH]ccc5c4)c3)CC2)=C(c2ccc(Cl)cc2)C1 | 105, 96.8, 68.1, 76.1, 83.7% | 71, 105, 69.8, 61.5, 74.3% | – | – | 84.1, 119, 71.8, 76.1, 84.4% | – | – | –
CC1COCCN1c1cc(-c2ccnn2C)c2ccnc(-c3ccn[nH]3)c2n1 (stereo not given) | 60.4, 54.8, 66, 57.5, 40.7% | – | – | – | – | 91.6, 51.6, 83.3, 169, 22.4 nM | – | viability, T/C (compound alone 0.01 µM): 85.7, 96.9, 99.1, 85.4, 70.9%
CC(C)n1nc(-c2ccc3oc(N)nc3c2)c2c(N)ncnc21 | 28.3, 52.6, 62.7, 53.1, 19.8% | – | – | – | 28.2, 45.2, 58.1, 51.3, 14.2% | 1.08 nM, 43.2 nM, > 100 nM, 1.7 nM | – | viability, T/C (compound alone 0.001 µM): 51.4, 87.2, 78.2, 80.5, 68.8%; viability, T/C (compound alone 0.00316 µM): 30.9, 61.2, 54.3, 70.4, 28.2%; viability, T/C (compound alone 0.01 µM): 30.9, 62.3, 53.9, 55.5, 26.6%
COc1cc2nccc(Oc3ccc(NC(=O)C4(C(=O)Nc5ccc(F)cc5)CC4)cc3)c2cc1OC | – | – | 64, 68.1, 86.3, 47.7, 76.5% | 74.4, 71, 71.8, 122% | 88.6, 86.1, 78.3, 106, 93.2% | – | 37, 35.4, 40.1, 103, 46.5% | –
CCNC(=O)CC1N=C(c2ccc(Cl)cc2)c2cc(OC)ccc2-n2c(C)nnc21 (stereo not given) | – | – | 66.5, 56.7, 57.9, 25.5, 44.5% | 41, 45.9, 39, 17.7, 40% | 98.6, 84.2, 78.1, 71.3, 76.1% | 3.32 µM, 2.6 µM, 2 µM, 323 nM, 698 nM | 50.6, 46.4, 47.6, 20.6, 44.8% | –
C=CC(=O)N1CCN(c2nc(OCC3CCCN3C)nc3c2CCN(c2cccc4cccc(C)c24)C3)CC1CC#N (stereo not given) | 39.5, 26, 34.6, 32.3, 35, 31.1, 16.5, 44.1, 25.8, 19.3, 31.4, 24.9, 28.8, 32, 23.9, 32.1, 36.2% | 32.8, 23, 31.7, 32.5, 35.2, 29.4, 13.3, 37.9, 23.6, 18.5, 30.6, 20.6, 65.4, 25.4, 23.3, 26.6, 32.7% | – | – | – | – | 48.2, 0.56, 1.79, 0.6, 0.36, 0.24, 0.31, 0.11, 0.12, 0.13, 0.25, 0.75, 2.2, 4.32, 2.74, 1.72, 5.09% | –
